Measurements published in the supplement of paper PMC4967469.

What was measured:
Assay in all cases: Viability of human cancer cell lines after 72 h of drug (GDSC screen)
Tipifarnib = compound: Cn1cncc1[C@@](N)(c1ccc(Cl)cc1)c1ccc2c(c1)c(-c1cccc(Cl)c1)cc(=O)n2C [Tipifarnib]; details: top dose 16 µM; top dose inferred
Protocol: (§1)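 Human cancer cell lines in 384-well plates, medium with 10% serum, drug for 72 h over a 256-fold dose range (nine 2-fold or five 4-fold steps up to the top dose). Adherent lines were fixed and stained with the nucleic acid dye Syto60, suspension lines read with resazurin; signal relative to control wells, capped at 0 and 100%. One two-parameter sigmoid per drug and line, fitted in a mixed model over all curves with the slope shared within a line.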

GSK-1904529A = compound: CCc1cc(Nc2nccc(-c3c(-c4ccc(OC)c(C(=O)Nc5c(F)cccc5F)c4)nc4ccccn34)n2)c(OC)cc1N1CCC(N2CCN(S(C)(=O)=O)CC2)CC1 [GSK-1904529A]; details: top dose 1.024 µM; top dose inferred
Protocol: as §1

BMS-509744 = compound: COc1cc(C)c(Sc2cnc(NC(=O)c3ccc(CNC(C)C(C)(C)C)cc3)s2)cc1C(=O)N1CCN(C(C)=O)CC1 [BMS-509744]; details: top dose 10.24 µM; top dose inferred
Protocol: as §1

NG-25 = compound: CCN1CCN(Cc2ccc(NC(=O)c3ccc(C)c(Oc4ccnc5[nH]ccc45)c3)cc2C(F)(F)F)CC1 [NG-25]; details: top dose 10.24 µM; top dose inferred
Protocol: as §1

PFI-1 = compound: COc1ccccc1S(=O)(=O)Nc1ccc2c(c1)CN(C)C(=O)N2 [PFI-1]; details: top dose 10 µM; top dose inferred
Protocol: as §1

| Cell Line | AUC (Tipifarnib) | pIC50 (Tipifarnib) | AUC (GSK-1904529A) | pIC50 (GSK-1904529A) | AUC (BMS-509744) | pIC50 (BMS-509744) | AUC (NG-25) | pIC50 (NG-25) | AUC (PFI-1) | pIC50 (PFI-1) |
| --- | --- | --- | --- | --- | --- | --- | --- | --- | --- | --- |
| SU-DHL-16 (B-cell lymphoma, suspension) | 0.46 | 6.10 | 0.815 | 6.42 | 0.953 | < 4.99 | 0.251 | 6.80 | 0.776 | 5.53 |
| SUP-HD1 (Hodgkin lymphoma, suspension) | 0.672 | 5.53 | 0.988 | < 5.99 | 0.903 | < 4.99 | 0.831 | 5.22 | 0.875 | 5.05 |
| SUP-M2 (anaplastic large cell lymphoma, suspension) | 0.715 | 5.47 | 0.994 | < 5.99 | 0.885 | 5.18 | 0.902 | 5.11 | 0.76 | 5.55 |
| SUP-T1 (T-cell lymphoblastic leukaemia, suspension) | 0.479 | 6.05 | 0.987 | < 5.99 | 0.836 | 5.23 | 0.758 | 5.49 | 0.92 | < 5.00 |
| SW684 (fibrosarcoma, adherent) | 0.949 | < 4.80 | 0.951 | < 5.99 | 0.933 | < 4.99 | 0.983 | < 4.99 | 0.921 | < 5.00 |
| SW872 (soft tissue, adherent) | 0.534 | 5.91 | 0.966 | < 5.99 | 0.9 | < 4.99 | 0.948 | < 4.99 | 0.711 | 5.64 |
| SW962 (urogenital system, adherent) | 0.599 | 5.70 | 0.958 | < 5.99 | 0.824 |  | 0.814 | 5.13 | 0.63 | 5.81 |
| SW982 (soft tissue, adherent) | 0.678 | 5.50 | 0.982 | < 5.99 | 0.753 | 5.45 | 0.853 | 5.08 | 0.817 | 5.24 |
| TC-71 (Ewing sarcoma, adherent) | 0.961 | < 4.80 | 0.992 | < 5.99 | 0.982 | < 4.99 | 0.787 | 5.44 | 0.831 | 5.31 |
| TE-1 (oesophagus, adherent) | 0.613 | 5.65 | 0.969 | < 5.99 | 0.838 | 5.01 | 0.978 | < 4.99 | 0.909 | < 5.00 |
| TE-5 (oesophagus, adherent) | 0.651 | 5.55 | 0.983 | < 5.99 | 0.943 | < 4.99 | 0.982 | < 4.99 | 0.806 | 5.22 |
| TE-6 (oesophagus, adherent) | 0.729 | 5.29 | 0.986 | < 5.99 | 0.939 | < 4.99 | 0.901 | < 4.99 | 0.956 | < 5.00 |
| TE-8 (oesophagus, adherent) | 0.479 | 6.06 | 0.969 | < 5.99 | 0.772 | 5.37 | 0.846 | 5.08 | 0.894 | < 5.00 |
| TE-9 (oesophagus, adherent) | 0.777 | 5.18 | 0.987 | < 5.99 | 0.918 | < 4.99 | 0.985 | < 4.99 | 0.902 | < 5.00 |
| TE-10 (oesophagus, adherent) | 0.457 | 6.12 | 0.963 | < 5.99 | 0.897 | < 4.99 | 0.952 | < 4.99 | 0.843 | 5.16 |
| TE-11 (oesophagus, adherent) | 0.598 | 5.74 | 0.988 | < 5.99 | 0.858 | 5.14 | 0.987 | < 4.99 | 0.9 | < 5.00 |
| TE-12 (oesophagus, suspension) | 0.64 | 5.57 | 0.915 | < 5.99 | 0.686 | 5.62 | 0.892 | < 4.99 | 0.938 | < 5.00 |
| TE-15 (oesophagus, suspension) | 0.373 | 6.37 | 0.981 | < 5.99 | 0.88 | < 4.99 | 0.774 | 5.34 | 0.982 | < 5.00 |

pIC50: −log10 of the molar value. IC50 is the fitted dose that halves viability relative to control wells, and lower means more sensitive; fits outside the tested doses are given as limits. AUC is the area under the same curve over the 256-fold range up to the top dose, as a fraction; it is 1 without any effect and falls as sensitivity rises. An inferred top dose was calculated from the reported fits.
